Test results taken from the supplement of paper PMC4166925.
± gives the standard deviation of the averaged measurements. The full ranking holds about 33,000 sequences; the median of “E-score (dimensionless, -0.5 to 0.5)” is about -0.046, and the highest 2% start at about 0.36. This is one part of the list.

These sequences were tested on T1, SpTbr T-box DNA-binding domain (GST fusion) (assay: PBM E-score of 8-mer (E-score (dimensionless, -0.5 to 0.5)); Tbr is Tbrain of the sea star Patiria miniata (Pm) or the sea urchin Strongylocentrotus purpuratus (Sp); higher = stronger binding preference; most listed sequences are background and not binding sites). Conditions: the construct has about 5 more residues each side.
T1 sequence: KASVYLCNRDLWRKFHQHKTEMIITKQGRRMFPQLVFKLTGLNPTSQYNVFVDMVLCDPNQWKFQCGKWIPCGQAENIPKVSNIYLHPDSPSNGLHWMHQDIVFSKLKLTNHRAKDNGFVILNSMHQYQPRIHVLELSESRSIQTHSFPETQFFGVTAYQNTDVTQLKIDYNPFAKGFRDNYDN
Protocol: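 Universal protein-binding microarray (Agilent AMADID 016060, 60-bp probes with a 35-bp variable region) incubated with 200 nM GST-fused Strongylocentrotus purpuratus Tbr T-box DNA-binding domain (residues 362-554) in PBS pH 7.5. Scored for every ungapped 8-mer (given with its reverse complement) as E-score (range -0.5 to 0.5; >0.45 counts as bound) and Z-score of median probe intensity. Two replicate arrays (datasets 1 and 2).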
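Also: protein at 200 nM in PBS on universal double-stranded arrays.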

Sequence	PBM E-score of 8-mer
GATGCGAA	0.202 ± 0.066
ATGTATCC	-0.195 ± 0.041
CGACTTAA	0.16 ± 0.029
CGAACTGC	0.0742 ± 0.014
GGCAATAA	0.0317 ± 0.016
CTCCTGCC	-0.0668 ± 0.12
AGAAACTG	-0.216 ± 0.0078
TGTCGAAA	0.158 ± 0.036
AGTAAGGG	-0.133 ± 0.026
ATCTAGTG	-0.0127 ± 0.054
CAGATTGA	-0.076 ± 0.021
CAATAGTG	0.117 ± 0.0084
GGTGGAGA	0.0705 ± 0.0099
CTGGTGAC	0.162 ± 0.074
GGAAAGCA	-0.0208 ± 0.033
AGGGGTGG	0.147 ± 0.069
GATCAAGC	-0.0785 ± 0.064
CAAGACTG	-0.194 ± 0.02
CATCCGTA	-0.172 ± 0.066
GAGCACCA	-0.0444 ± 0.098
CACACGTG	0.383 ± 0.0078
CCGCCAAG	0.1155 ± 0.00084

Sequence	PBM E-score of 8-mer
CGCCTGGC	0.187 ± 0.036
ACAAGACG	-0.0802 ± 0.091
GGGATGAA	-0.231 ± 0.0083
AAAACTTC	-0.0919 ± 0.018
AGTGCTTC	-0.0466 ± 0.033
GAAGGTGA	0.348 ± 0.035
ACTACTGA	-0.275 ± 0.016
AGCATTAC	-0.167 ± 0.045
ATAAACCA	-0.222 ± 0.084
ATCGCCTC	0.169 ± 0.061
ACTGCCGG	-0.0124 ± 0.022
AAAGTATC	-0.00131 ± 0.029
TGCCTGAA	-0.2124 ± 0.00087
AATCTCCG	-0.175 ± 0.042
AGGAATAG	-0.248 ± 0.037
CTCGGCCC	-0.0368 ± 0.041
ACTCACAG	0.313 ± 0.011
CTCCGATC	-0.035 ± 0.069
GAGGCATA	-0.25 ± 0.078
CATTTCAA	-0.00958 ± 0.06
GCTGGAAA	-0.0541 ± 0.037
AGCTGACC	-0.27 ± 0.024

Sequence	PBM E-score of 8-mer
CGCGAACG	0.422 ± 0.013
GAATAGGC	-0.0606 ± 0.049
CGGCCTCC	-0.264 ± 0.058
AAACGATC	0.11 ± 0.0034
AAGGCCGA	-0.1976 ± 0.0019
ACCTACGC	0.071 ± 0.034
AGTAACAT	-0.266 ± 0.032
ATGGACGC	-0.114 ± 0.015
AGACGTAG	-0.217 ± 0.039
AGGGCACA	0.0118 ± 0.023
GATCCTCA	0.11 ± 0.055
AGCATGAT	-0.0771 ± 0.026
GGGATCCC	-0.236 ± 0.0038
ATGCCAGC	-0.105 ± 0.0098
CAGTCTCA	0.1623 ± 0.00064
GCGACAAA	0.298 ± 0.017
ACACTGAA	-0.0398 ± 0.041
ATCTCAAA	-0.202 ± 0.0099
GATATCAA	0.0861 ± 0.0077
GAACTGCA	-0.133 ± 0.029
TGTGGCAA	0.261 ± 0.011
GACTCCAA	-0.105 ± 0.096

Sequence	PBM E-score of 8-mer
CAAGACTA	-0.19 ± 0.17
CATGGGAG	-0.068 ± 0.026
CGCGGTAG	0.147 ± 0.045
GCTACAGA	0.0447 ± 0.073
CCTGACCA	-0.0438 ± 0.067
CAGACTTA	-0.113 ± 0.05
TCTCCGAA	-0.175 ± 0.042
AACATACC	0.104 ± 0.018
AGATTGAA	-0.193 ± 0.028
TCATACCA	-0.0164 ± 0.012
ACAGGATA	-0.119 ± 0.036
GCGGTAAA	-0.035 ± 0.099
ACCTCCCC	-0.0138 ± 0.047
CCCGCCCG	-0.148 ± 0.0098
ATACCTCC	-0.0183 ± 0.066
ACGCTCCA	-0.1 ± 0.057
GCAATCGC	0.212 ± 0.0066
ATTGTCTA	-0.196 ± 0.063
ATCTGATA	-0.22 ± 0.036
CGTAGGCA	-0.0428 ± 0.0036
AATGGCTC	-0.0407 ± 0.06
CCACAATA	-0.0827 ± 0.014

Sequence	PBM E-score of 8-mer
CTAATTGA	0.0472 ± 0.023
GCTCGTTA	0.0153 ± 0.065
ATAACAAC	0.12 ± 0.092
ATATTAAC	-0.0957 ± 0.015
GCATACCC	-0.188 ± 0.08
CTCTGCCA	0.0746 ± 0.08
CTCGGACA	-0.0674 ± 0.015
CCTAACTC	-0.0227 ± 0.032
CAAACGTC	-0.223 ± 0.032
CAGTCTCG	-0.0906 ± 0.026
ATACAGGG	-0.276 ± 0.015
CTCTACTA	-0.000155 ± 0.028
ATACGCGA	0.132 ± 0.016
AATACGAT	-0.0904 ± 0.018
CCGATGCA	-0.207 ± 0.029
CCGGATCA	0.0508 ± 0.061
GTTGGCGA	0.261 ± 0.036
CCTGTGCC	-0.039 ± 0.027
GATAGCGA	0.0892 ± 0.037
ATACCGCA	0.00315 ± 0.0055
CTGGTCCA	-0.205 ± 0.033
